Reference: patent publication US12551573B2, “Compositions and methods for the targeting of PCSK9” (Scribe Therapeutics Inc., priority 2022, dated 2026)

Tested on: HBEGF locus
Type: cell-based, human
[1] = fold change in abundance of each repressor domain in the dXR library before vs after diphtheria toxin selection, dXR repression of the HBEGF gene, domains meeting p-value <0.01 and log2(fold change) >2
[2] = high-throughput screen of dXR repression of the HBEGF gene, change in abundance of each domain in the library before and after diphtheria toxin selection

Molecule	Log2 (fold change) [1]	Log2 (fold change) [2]
DOMAIN_32159 (protein, listed as Homo sapiens) DSVAFEDVAVNFTQEEWALLSPSQKNLYRDVTLETFRNLASVGIQWKDQDIENLYQNLGIKLRSLVERLCGRKEGNEHRE	2.7874	–
DOMAIN_29471 (protein, listed as Cricetulus griseus) LTYDDVQINFTSEEWSLLDTSQKNLYKDVMLETYKNLTDIGYTWEDCSIEEHCASSKRKERPKRSQTGEKPSAYTQCAKDFAYS	3.1911	–
DOMAIN_32312 (protein, listed as Homo sapiens) GSLEEGRRATGLPAAQVQEPVTFKDVAVDFTQEEWGQLDLVQRTLYRDVMLETYGHLLSVGNQIAKPEVISLLEQGEEPW	2.9151	–
DOMAIN_29467 (protein, listed as Mus caroli) VTYEDVHVNFTQEEWALLDPSQKKLYKDVMLETYRNLNAIGFSWEAQNIEEHCQSFGRHRRCERSQRAEKPSEYTQPDKGFALRAHSHAQRHE	3.4689	–
DOMAIN_30329 (protein, listed as Macaca mulatta) LTFEDVAVYFSEEEWQLLDPPEKTLYNDVMQDIYETVISLGLKLKNDTGNDHPISVSTSEIQTSGCKVSKKTRMKIAQKTMGRE	2.1216	–
DOMAIN_29426 (protein, listed as Mus caroli) VTYEDVHVNFSHEEWALLDSSQKSLYRDVMLETCRNLMAIGYRLEDHNIEEHCQSSRRPGRYNICNCGYKPCENEDHGKKQCTF	2.0491	–
DOMAIN_30211 (protein, Bison bison) VVFEDVAVNFTLEEWALLDSSQKELYRDVMLETFRNLASVDGETQYKANGSVSQQDIYRNKISKEHKISKFTGNDSWPFVLGKIWEELS	2.3322	–
DOMAIN_30236 (protein, listed as Callithrix jacchus) VTFEDIAVYFSREEWGLLDEAQRCLYHDVMLENFSLMTSVGCLHGIGAEEAPSEQIVSVETVSQARTPKPSSSIPNAHSCEMCILVMKDILYLTEHQGTLPWQKPYTSAASGKW	2.7293	–
DOMAIN_29511 (protein, listed as Peromyscus maniculatus) ITYDDVHVNFTWEEWTLLDPFQKNLYKDVMLETYRNLTTIGYSWEDSNIEVHCQSSGRHERHERSHTGEKPSVYTQCVETFAHH	3.4739	–
DOMAIN_32215 (protein, listed as Homo sapiens) SQVTFSDVAIDFSHEEWACLDSAQRDLYKDVMVQNYENLVSVGLSVTKPYVIMLLEDGKEPWMMEKKLSKAYPFPLSHSV	3.2653	–
DOMAIN_29616 (protein, listed as Mesocricetus auratus) VTFEDVAVNFTSGEWALLDSSQKKLYRDVMKETFLNLISIEKGLEPNIEEHYKDFCRNLRTQLVEKDWGYEYNRQWDDNLQT	2.2807	–
DOMAIN_1237 (protein, Pan troglodytes) MLPIVQLYPQGLVSFKDVAVDFTQEEWQQLDPSQRTLYRDVMLENYSHLVSMGYPVSKPDVISKLEQGEEPWIIKGDISNW	–	2.1795
DOMAIN_32279 (protein, listed as Homo sapiens) EETQGELTSSCGSKTMANVSLAFRDVSIDLSQEEWECLDAVQRDLYKDVMLENYSNLVSLGYTIPKPDVITLLEQEKEPW	2.4917	–
DOMAIN_29765 (protein, listed as Erinaceus europaeus) VTYEDVTVTFTQEEWALLNPSEKKLYRDVMWENLRNIFSTGKIQGDNYNEEQHNHQGSKQSCRVVKISGGQKRSQNDEKQRMQSEGKSYECE	3.3088	–
DOMAIN_32127 (protein, listed as Homo sapiens) AFEDVAVYFSQEEWGLLDTAQRALYRRVMLDNFALVASLGLSTSRPRVVIQLERGEEPWVPSGTDTTLSRTTYRRRNPGS	3.7547	–
DOMAIN_32145 (protein, listed as Homo sapiens) RESLEDEVTPGLPTAESQELLTFKDISIDFTQEEWGQLAPAHQNLYREVMLENYSNLVSVGYQLSKPSVISQLEKGEEPW	3.1866	–
DOMAIN_32146 (protein, listed as Homo sapiens) ALRSVMFSDVSIDFSPEEWEYLDLEQKDLYRDVMLENYSNLVSLGCFISKPDVISSLEQGKEPWKVVRKGRRQYPDLETK	2.7628	–
DOMAIN_30185 (protein, listed as Rhinopithecus roxellana) VAFEDVAVNFTQEEWALLDPSQKNLYREVMQETLRNLASIGKKWNNQYIEDEHQNPRRNLRRLIKERLSESKESHQHGEFLTQVPDD	3.0766	–
DOMAIN_31638 (protein, listed as Balaenoptera acutorostrata) VVFEDVAVYFSQEEWGLLDEAQRHLYHAVMTENFALVTSLGCWHGAQDEEAPSEQSISVGMSEVGTPKPDPSTKKGQPYEMCEPLSKDLLHL	2.0254	–
DOMAIN_32286 (protein, listed as Homo sapiens) DTVVFEDVVVDFTLEEWALLNPAQRKLYRDVMLETFKHLASVDNEAQLKASGSISQQDTSGEKLSLKQKIEKFTRKNIWA	2.8921	–
DOMAIN_29614 (protein, listed as Peromyscus maniculatus) VTYDDVHIDFTWEEWTLLDPSQKNLYKDVMLETYRNLTTVGYSWEDHLIEEHCKSSRKHERHERIPTGEQPSESTQSFRAFAHH	3.4528	–
DOMAIN_31798 (protein, listed as Notechis scutatus) VSFEEVAVHFSEEEWSQLDPAQKALHGEVMLENSRNLASLGYNEHGNKNCKEQCQPVDPNEQNRNFADQMQTKIDETNQSQSEVEKTFHSTHH	4.8007	–
DOMAIN_31235 (protein, Vicugna pacos) VTFEDVAVNFSLEEWALLDLSQKKLYRDVMQETFRNLASVGEKWDNHNIEDWNKTQGRKLRSHMVEKLSESKEGGQHGETASQIPNL	2.2828	–
DOMAIN_1242 (protein, Pan troglodytes) ADITLMSQAQDSRSILFQESVTFEDVAVNFTNREWQCLTYAQRHLYKDVMLENYGNMVSLGFPFPKPPLISHLEREVDPCV	–	2.7144
DOMAIN_1247 (protein, Pan troglodytes) MRVLTFRDVAVEFSPEEWECLDSAQQHLYRDVMLENYGNLFSLGLAIFKPDLITYLEQRKEPWNARRQKTVAKHPAGSLHF	–	2.9622
DOMAIN_31383 (protein, listed as Propithecus coquereli) VTFEDVAVNFTPQEWALLDPSQKNLYRDVMQETLRNLASVGKKWKDQNMEDECKTPRRNLRSVVGERLFTSKEGSQCGETLNLDSHHMLKK	2.1919	–

Read-outs that look alike come from different tables or passages of the source.
